According to PubChem BioAssay AID1461 (National Center for Advancing Translational Sciences (NCATS), 2008):
Hit rate of the full screen: of about 220,000 compounds, about 2,300 (1%) were called active. The inconclusive results got no clear call from the source; some entries with a clear call stand among them for comparison. Calls follow the shape of the dose curve; as a rule, active = well fitted inhibition curve with a large enough effect; inconclusive = small, poorly fitted or top-dose-only effect, or effect the other way; inactive = no such curve, though single readings can be large or run the other way. No potency is given beside an inconclusive call; the fits are too rough.

Molecular target: Neuropeptide S receptor (Homo sapiens) (UniProt Q6W5P4)
Chain of UniProt Q6W5P4 (Q6W5P4 whole entry, looked up): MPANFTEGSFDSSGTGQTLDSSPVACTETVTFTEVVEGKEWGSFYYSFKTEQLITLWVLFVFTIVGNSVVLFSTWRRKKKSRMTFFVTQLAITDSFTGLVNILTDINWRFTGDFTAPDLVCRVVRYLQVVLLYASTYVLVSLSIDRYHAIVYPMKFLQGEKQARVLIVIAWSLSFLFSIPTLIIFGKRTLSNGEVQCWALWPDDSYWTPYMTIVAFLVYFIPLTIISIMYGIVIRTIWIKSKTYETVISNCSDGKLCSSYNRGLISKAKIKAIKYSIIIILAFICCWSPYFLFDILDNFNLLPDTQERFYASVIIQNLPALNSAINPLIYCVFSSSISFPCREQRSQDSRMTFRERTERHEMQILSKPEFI
Assay: qHTS Assay for Antagonists of the Neuropeptide S Receptor: cAMP Signal Transduction; also: nearly all actives have a fitted effect of over 50% in size
Settings: CHO-NPSR cells, cAMP TR-FRET, antagonist mode; activity change, negative = inhibition: at 38.3 µM (top of the series) unless noted
% is scaled to controls: 0 for no effect and ±100 for the full control effect; potency is read from the fitted curve at half-maximal effect; tags tell the direction and shape of the fitted curve.

SMILES	Potency	activity change, negative = inhibition
CCCCCCCn1c(NC(=O)CC)nc2ccccc21	inconclusive [inhibitor, single point]	–
COC(=O)c1sc2ncccc2c1OCc1ccc(Cl)cc1	inconclusive [inhibitor, partial curve]	–
N[C@H](C(=O)O)c1cc(O)cc(O)c1	inconclusive [inhibitor, single point]	–
COc1cc2c(cc1OC)CN(C(=O)CC1CC3CCC1C3)CC2 (stereo not drawn)	inconclusive [inhibitor, single point]	–
OC(c1ccccc1)(c1ccccc1)C1CCN(C(=S)NCCc2ccccc2)CC1	inconclusive [activator, partial curve]	–
O=C(c1ccccc1)C1Oc2ccccc2C2CC(c3cccs3)=NN12 (stereo not drawn)	inconclusive [activator, single point]	–
Cc1ccc(Cn2ncc(Cl)c(Cl)c2=O)cc1	–	inactive: -47%
O=C(NN1C(=O)/C(=C/c2cccs2)SC1=S)c1ccncc1	inconclusive [inhibitor, single point]	–
COc1ccc(-c2csc3nc(-c4ccccc4F)oc(=O)c23)cc1OC	inconclusive [inhibitor, single point]	–
CC(C)Cn1c(CN2C(=O)c3ccccc3C2=O)nc2ccccc2c1=O	inconclusive [inhibitor, single point]	–
CCC(C)n1c(=S)[nH]c2c(sc3ccc([N+](=O)[O-])cc32)c1=O (stereo not drawn)	–	inactive: -11.4%
CC(C)CC(=O)NC(=S)Nc1ccccc1N1CCCC1	inconclusive [activator, single point]	–
CCOc1ccc2c(c1)cc(CN(C(=O)CC)C1CCCCC1)c1nnnn12	inconclusive [inhibitor, single point]	–
CC(C)CN(/C=N/c1sc2c(c1C#N)CCCCC2)CC(C)C	inconclusive [inhibitor, single point]	–
CCC(C)Sc1cc(C(F)(F)F)c(C(=O)Nc2ccc(Cl)cc2)cn1 (stereo not drawn)	inconclusive [activator, single point]	–
CCOC(=O)C1CCCN(C/C(O)=C(\C#N)c2nc(-c3ccc(Cl)cc3)cs2)C1 (stereo not drawn)	inconclusive [inhibitor, single point]	–
Cn1nc(C(C)(C)C)c([N+](=O)[O-])c1C(=O)Nc1ccc(Br)cc1	inconclusive [inhibitor, single point]	–
O=C(/C=C/c1ccco1)c1ccc(O)cc1	–	inactive: -22.5%
N#Cc1ccc(-c2cccnc2)nc1SCC(=O)c1ccccc1	inconclusive [activator, partial curve]	–
Cc1ccc(NC(=O)c2c(C(F)(F)F)nn(C)c2SCc2cccc(C(F)(F)F)c2)cc1C	inconclusive [inhibitor, single point]	–
CCOc1ccccc1-n1nnnc1SCC(=O)NC(=O)Nc1ccc2c(c1)OCCO2	inconclusive [inhibitor, partial curve, poor fit]	–
O=c1c2ccccc2sc2nc(C3CCCCC3)n(Cc3ccco3)c(=O)c12	active: 10 µM	–

SMILES	Potency	activity change, negative = inhibition
CC(=O)NC(Cc1cccc(F)c1)C(=O)NC1CCN(C(=O)c2cccc(C)c2)CC1 (stereo not drawn)	–	inactive: 19.1%
Oc1[nH]c2ccccc2c1C=Nc1ccc2c(c1)OCO2	inconclusive [inhibitor, partial curve, poor fit]	–
COc1ccc(-n2c(SC(CN3CCCCC3)CN3CCCC3=O)nc3ccccc3c2=O)cc1 (stereo not drawn)	inconclusive [inhibitor, partial curve, poor fit]	–
Brc1ccc(-c2nc3ncccn3c2NC2CCCCC2)o1	inconclusive [inhibitor, single point]	–
CCOC(=O)CC1C(=O)NCCN1C(=S)Nc1ccccc1 (stereo not drawn)	–	inactive: 15%
CCCC/C(O)=C1\C(=O)CC(C)(C)CC1=Nc1ccccc1OC	inconclusive [inhibitor, partial curve]	–
CC1(C)Cc2ccccc2/C(=C/C(=O)N2CCCCCC2)N1	active: 7.94 µM	–
O=C(NCCN1C(=O)S/C(=C\c2cccs2)C1=O)[C@H](Cc1ccccc1)N1C(=O)c2ccccc2C1=O	inconclusive [inhibitor, single point]	–
COc1ccccc1NS(=O)(=O)c1cccc(NC(=O)Nc2ccc(Cl)cc2)c1	inconclusive [inhibitor, single point]	–
CCOC(=O)C12CC1/C(=N/O)c1ccccc1O2 (stereo not drawn)	–	inactive: -8.12% [at 46.1 µM]
CCOC(=O)C(NC(=O)NCc1cccc(C(F)(F)F)c1)(OCC)C(F)(F)F (stereo not drawn)	inconclusive [inhibitor, single point]	–
O=C1c2ccccc2C(=O)c2c1oc(C(F)(F)F)c2C(=O)c1ccccc1	active: 5.01 µM	–
Cc1ccc(N=Nc2c(=O)[nH]n3c(C)cc(C)nc23)cc1	inconclusive [inhibitor, partial curve]	–
CC1=C(C)CS(=O)N(S(=O)(=O)c2ccc(Cl)cc2)C1 (stereo not drawn)	inconclusive [inhibitor, single point]	–
O=C(CC1SC(=Nc2ccccc2)N(Cc2ccccn2)C1=O)Nc1cccc(Cl)c1 (stereo not drawn)	inconclusive [inhibitor, partial curve, poor fit]	–
O=C(Nc1nc(-c2cc(Cl)sc2Cl)cs1)c1ccc(Br)s1	inconclusive [inhibitor, single point]	–
O=C(NCCC(c1ccccc1)c1ccccc1)c1cccs1	–	inactive: -49.3%
COC(=O)CON1C(=O)c2ccccc2C1=O	–	inactive: -0.0402% [at 46.1 µM]
CCC(C)(C)C1CCc2[nH]nc(C(=O)N/N=C(\C)c3ccco3)c2C1 (stereo not drawn)	inconclusive [activator, partial curve]	–
N#Cc1ccc(-c2ccc(F)cc2)nc1Sc1ccccc1	inconclusive [inhibitor, partial curve]	–
CC(=O)SC1CC2=CC(=O)CC[C@]2(C)C2CC[C@@]3(C)[C@@H](CC[C@@]34CCC(=O)O4)C12 (stereo partly drawn)	inconclusive [inhibitor, partial curve]	–
